Laboratory results published in the supplement of paper PMC4166925.
± gives the standard deviation of the averaged measurements. Over roughly 33,000 sequences, “E-score (dimensionless, -0.5 to 0.5)” has its median near -0.046; the highest 2% begin near 0.36. Some of the results follow.

tested on: T1, SpTbr T-box DNA-binding domain (GST fusion); test: PBM E-score of 8-mer (E-score (dimensionless, -0.5 to 0.5)); Tbr is Tbrain of the sea star Patiria miniata (Pm) or the sea urchin Strongylocentrotus purpuratus (Sp); higher = stronger binding preference; most listed sequences are background and not binding sites; conditions: the construct has about 5 more residues each side
T1 sequence: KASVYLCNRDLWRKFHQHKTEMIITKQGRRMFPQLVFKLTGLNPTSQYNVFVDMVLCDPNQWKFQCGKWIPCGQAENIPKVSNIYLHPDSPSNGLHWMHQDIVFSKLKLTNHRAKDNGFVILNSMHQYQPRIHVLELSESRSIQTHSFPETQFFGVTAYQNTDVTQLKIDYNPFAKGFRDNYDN
Outline: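 Using the Universal PBM Analysis Suite, every ungapped 8-mer received an enrichment E-score averaged over duplicate arrays. Probe intensities came from double-stranded Universal Agilent oligonucleotide arrays incubated with 200 nM GST-fused Tbr T-box DNA-binding domain in PBS (pH 7.5). That protein was expressed in BL21 E. coli at 20 °C and purified by glutathione affinity chromatography.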

With CTGCCTGA as the sequence, how does the “PBM E-score of 8-mer” value read?
The value was -0.304 ± 0.01.

How did the “PBM E-score of 8-mer” value turn out when AGTTTTAG was run?
Its value is 0.158 ± 0.011.

GTTACTTA was tested. Which “PBM E-score of 8-mer” value did it give?
Its value is -0.0186 ± 0.0063.

Which “PBM E-score of 8-mer” value does the source give for GCGCCCGA here?
Its value is 0.075 ± 0.0029.

Which “PBM E-score of 8-mer” value does the source give for AAGACGCA here?
Its value is 0.0881 ± 0.014.

Which “PBM E-score of 8-mer” value does the source give for TAGCGACA here?
Its value is 0.308 ± 0.024.

How did the “PBM E-score of 8-mer” value turn out when CACCAGAG was run?
The value was 0.157 ± 0.016.

Which “PBM E-score of 8-mer” value does the source give for AAATAAGG here?
The value was -0.202 ± 0.049.

Which “PBM E-score of 8-mer” value does the source give for AGCTCCAC here?
The value was 0.0522 ± 0.059.

For AGGAAGAC, which “PBM E-score of 8-mer” value is on record?
The value was -0.135 ± 0.086.

Which “PBM E-score of 8-mer” value does the source give for ACACGATG here?
The value was 0.194 ± 0.024.

GGTATAAC was tested. Which “PBM E-score of 8-mer” value did it give?
The value was -0.0329 ± 0.043.

ACGCCTCA was tested. Which “PBM E-score of 8-mer” value did it give?
The value was 0.331 ± 0.01.

ATCGGCGC was tested. Which “PBM E-score of 8-mer” value did it give?
The value was 0.0488 ± 0.056.

How did the “PBM E-score of 8-mer” value turn out when GCATTAAC was run?
Its value is 0.0789 ± 0.044.

TCGGGGCA was tested. Which “PBM E-score of 8-mer” value did it give?
The value was -0.271 ± 0.015.

How did the “PBM E-score of 8-mer” value turn out when TCATCGGA was run?
Its value is -0.202 ± 0.0093.

GTGCTTAA was tested. Which “PBM E-score of 8-mer” value did it give?
Its value is -0.00664 ± 0.045.

With CCAGAAGG as the sequence, how does the “PBM E-score of 8-mer” value read?
The value was -0.0595 ± 0.017.

Which “PBM E-score of 8-mer” value does the source give for ACATTTTC here?
The value was 0.112 ± 0.042.

How did the “PBM E-score of 8-mer” value turn out when GACCTCCC was run?
The value was -0.159 ± 0.12.

With TAGGATAA as the sequence, how does the “PBM E-score of 8-mer” value read?
Its value is -0.162 ± 0.0092.

For CGCTAACC, which “PBM E-score of 8-mer” value is on record?
Its value is 0.19 ± 0.0091.

How did the “PBM E-score of 8-mer” value turn out when ATCGTCAC was run?
The value was 0.381 ± 0.011.

How did the “PBM E-score of 8-mer” value turn out when GGACATGA was run?
Its value is -0.0912 ± 0.042.

Which “PBM E-score of 8-mer” value does the source give for ATCCTAAA here?
The value was -0.337 ± 0.039.

For ACAACTAA, which “PBM E-score of 8-mer” value is on record?
The value was 0.155 ± 0.064.

How did the “PBM E-score of 8-mer” value turn out when GCAAGTCA was run?
The value was 0.163 ± 0.0037.

With ACTGACAA as the sequence, how does the “PBM E-score of 8-mer” value read?
Its value is 0.165 ± 0.0096.

ACCTAATA was tested. Which “PBM E-score of 8-mer” value did it give?
The value was 0.0744 ± 0.042.

How did the “PBM E-score of 8-mer” value turn out when AGTCGGGC was run?
Its value is -0.0442 ± 0.069.

Which “PBM E-score of 8-mer” value does the source give for ACTGCTCC here?
The value was -0.0216 ± 0.055.

Which “PBM E-score of 8-mer” value does the source give for GGAGCTGA here?
The value was -0.203 ± 0.042.

With AACGCGTG as the sequence, how does the “PBM E-score of 8-mer” value read?
The value was 0.309 ± 0.034.

With AGGTTCAG as the sequence, how does the “PBM E-score of 8-mer” value read?
The value was -0.00225 ± 0.011.

How did the “PBM E-score of 8-mer” value turn out when CTTCCTCC was run?
Its value is -0.204 ± 0.065.

How did the “PBM E-score of 8-mer” value turn out when CTTAAAAA was run?
The value was -0.117 ± 0.16.

With AAGTCACC as the sequence, how does the “PBM E-score of 8-mer” value read?
Its value is -0.102 ± 0.077.

CTAAGCTA was tested. Which “PBM E-score of 8-mer” value did it give?
Its value is -0.202 ± 0.023.

With ACGTCGGA as the sequence, how does the “PBM E-score of 8-mer” value read?
The value was 0.0819 ± 0.03.

For ACAGCTGA, which “PBM E-score of 8-mer” value is on record?
Its value is 0.0609 ± 0.041.

With AGAATTAT as the sequence, how does the “PBM E-score of 8-mer” value read?
Its value is -0.182 ± 0.066.

With CGCGCCGC as the sequence, how does the “PBM E-score of 8-mer” value read?
The value was 0.264 ± 0.03.

Which “PBM E-score of 8-mer” value does the source give for CATGGACG here?
Its value is -0.0352 ± 0.046.

For CTGTGCCA, which “PBM E-score of 8-mer” value is on record?
The value was 0.0323 ± 0.097.

CGCTCCCG was tested. Which “PBM E-score of 8-mer” value did it give?
The value was -0.0657 ± 0.016.

ACCAACCC was tested. Which “PBM E-score of 8-mer” value did it give?
The value was -0.129 ± 0.036.

With CTTAGATC as the sequence, how does the “PBM E-score of 8-mer” value read?
The value was -0.11 ± 0.11.

Which “PBM E-score of 8-mer” value does the source give for CTGAACAA here?
Its value is -0.0667 ± 0.0045.

For CGAAATCG, which “PBM E-score of 8-mer” value is on record?
The value was 0.2456 ± 0.0015.

Which “PBM E-score of 8-mer” value does the source give for AAGGGTAA here?
Its value is -0.088 ± 0.0016.

For GATGGTCA, which “PBM E-score of 8-mer” value is on record?
The value was -0.2479 ± 0.00035.

With AAATCAGG as the sequence, how does the “PBM E-score of 8-mer” value read?
The value was -0.253 ± 0.14.

With CCAGAGGA as the sequence, how does the “PBM E-score of 8-mer” value read?
Its value is 0.0396 ± 0.008.

Which “PBM E-score of 8-mer” value does the source give for CCGAACGC here?
The value was -0.0118 ± 0.08.

How did the “PBM E-score of 8-mer” value turn out when ACACGAGG was run?
Its value is 0.0971 ± 0.016.

For CCTCCGAG, which “PBM E-score of 8-mer” value is on record?
The value was -0.0637 ± 0.023.

TGCAAGAA was tested. Which “PBM E-score of 8-mer” value did it give?
The value was -0.0626 ± 0.014.

GAATGGAA was tested. Which “PBM E-score of 8-mer” value did it give?
The value was -0.209 ± 0.062.

How did the “PBM E-score of 8-mer” value turn out when GGATCGGA was run?
The value was -0.194 ± 0.042.

For CACGTCAC, which “PBM E-score of 8-mer” value is on record?
Its value is 0.279 ± 0.04.

GGGATCCA was tested. Which “PBM E-score of 8-mer” value did it give?
Its value is -0.104 ± 0.035.

How did the “PBM E-score of 8-mer” value turn out when CGTGTAGA was run?
The value was 0.0779 ± 0.011.

For CAATATAA, which “PBM E-score of 8-mer” value is on record?
The value was 0.00368 ± 0.12.

With TGCGAGCA as the sequence, how does the “PBM E-score of 8-mer” value read?
Its value is 0.203 ± 0.026.

How did the “PBM E-score of 8-mer” value turn out when CGTACGGC was run?
The value was -0.245 ± 0.017.

With ATATAACG as the sequence, how does the “PBM E-score of 8-mer” value read?
The value was 0.0543 ± 0.025.

For AGGTGACG, which “PBM E-score of 8-mer” value is on record?
The value was 0.453 ± 0.0078.

With AAGAGTCG as the sequence, how does the “PBM E-score of 8-mer” value read?
Its value is -0.0522 ± 0.054.

How did the “PBM E-score of 8-mer” value turn out when CCCGAGAA was run?
Its value is 0.0759 ± 0.023.

For ATACCCAG, which “PBM E-score of 8-mer” value is on record?
The value was -0.0897 ± 0.035.

With ATTGAACA as the sequence, how does the “PBM E-score of 8-mer” value read?
Its value is 0.00183 ± 0.03.

Which “PBM E-score of 8-mer” value does the source give for ACGGCTAG here?
Its value is 0.0477 ± 0.031.

GGTGACTA was tested. Which “PBM E-score of 8-mer” value did it give?
The value was 0.196 ± 0.039.

For CCTGATGC, which “PBM E-score of 8-mer” value is on record?
The value was 0.028 ± 0.01.

For AACCCATT, which “PBM E-score of 8-mer” value is on record?
The value was -0.177 ± 0.02.

ACTGTATG was tested. Which “PBM E-score of 8-mer” value did it give?
The value was 0.0126 ± 0.017.

How did the “PBM E-score of 8-mer” value turn out when CGGCCAGA was run?
The value was -0.239 ± 0.051.

How did the “PBM E-score of 8-mer” value turn out when GGGTCCCA was run?
Its value is -0.11 ± 0.006.

CCGGCACG was tested. Which “PBM E-score of 8-mer” value did it give?
Its value is 0.0831 ± 0.0094.

Which “PBM E-score of 8-mer” value does the source give for CGGCTAAG here?
Its value is -0.179 ± 0.0048.

With AAAGCTAG as the sequence, how does the “PBM E-score of 8-mer” value read?
Its value is 0.0291 ± 0.063.

For CTCGAGGC, which “PBM E-score of 8-mer” value is on record?
Its value is 0.0155 ± 0.045.

Which “PBM E-score of 8-mer” value does the source give for CCCCGCAG here?
Its value is 0.00123 ± 0.069.

For CCTCTATA, which “PBM E-score of 8-mer” value is on record?
Its value is -0.145 ± 0.017.

For ACGAAAAA, which “PBM E-score of 8-mer” value is on record?
Its value is 0.0295 ± 0.058.
